According to PubChem BioAssay (NCI):
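Values below derive from 48-hour exposures of cells grown in 96-well plates, with endpoints linearly interpolated between the two concentrations bracketing the appropriate inhibition level. Here, GI50 denotes the concentration required for 50% inhibition of growth. TGI marks complete inhibition of growth.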

System: NCI-H322M lung
Assay: inhibition of tumour cell growth, NCI panel, 48 h

| SMILES | GI50 | TGI |
| --- | --- | --- |
| CCCCCCCCCCCCCCCCCCCC(=O)NCCc1c[nH]c2ccc(OC(=O)NOCCOCCOCCOCCOCCOCCOCCOCCOCCOCCOCCOCCOCCOCCOCCOCCOCCOCCOCCOCCOCCOCCOC)cc12 | 15.3 µM | 32.5 µM |
| O=C(Cn1c(-c2ccccc2)nc2ccccc21)N=Nc1c(O)[nH]c2ccc(Cl)cc12 | 14.8 µM | 29.4 µM |
| COc1cnc2c(c1)C(=O)c1c-2n(CCCNC(C)C)c(=O)c2cc(OC)c(OC)cc12 | 4.38 µM | 19.5 µM |
| Clc1ccc(-c2nc3c4c(-c5ccccc5)c(-c5ccccc5)n(Cc5ccccc5)c4ncn3n2)cc1 | 27.5 µM | > 100 µM |
